Antibody binding signal data for 13 sequences are collected here from the supplement of paper PMC10441789.

What all share (test): antibody binding signal (normalised fluorescence) (arbitrary fluorescence units); higher = stronger serum antibody binding to peptide
The subject of test [1] is pooled sera of chronic Chagas disease patients, Bolivia. As to the method:
(§1)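 Microarray of 15-residue peptides over residues 30-55 of Trypanosoma cruzi TSSAII, each with 1 to 10 substitutions at naturally variable positions, probed with one serum pool per country.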

Test [2] has as its system pooled sera of chronic Chagas disease patients, Brazil. The method, then: as §1
Test [3] relates to pooled sera of chronic Chagas disease patients, Colombia. The method, then:
as §1

For test [4], the system named is pooled sera of chronic Chagas disease patients, Mexico. The method, then: as §1
The test system of test [5] is pooled sera of chronic Chagas disease patients, USA. The method, then: as §1
The subject of test [6] is pooled sera of uninfected people, Argentina. As to the method: as §1
The test system of test [7] is pooled sera of uninfected people, Bolivia. As to the method:
as §1

Test [8] deals with pooled sera of uninfected people, Brazil. The method, then:
as §1

The test system of test [9] is pooled sera of uninfected people, Colombia. The method, then:
as §1

Test [10] deals with pooled sera of uninfected people, Mexico. The method, then: as §1
The test system of test [11] is pooled sera of uninfected people, USA. The method, then:
as §1

The other results are listed elsewhere or left out. Antibody binding of pooled human sera (four to six donors per pool; dilution not stated) to peptides of the Trypanosoma cruzi antigen TSSA on microarrays. Quantile-normalised fluorescence in arbitrary units, mean of duplicate arrays; higher = more binding. No active / inactive call. The uninfected pools are read here as the healthy donors of the same country. The strongest signals lie near the top of the scale (about 60,000).

As to SGTDNKPAAGGTPSQ, the antibody binding signal came to 1770 in test [1]; 44100 in test [2]; 4870 in [3]; 462 in [4]; 494 in [5]; 193 in [6]. The antibody binding signal amounted to 921 in test [7]; 1090 in test [8]; 450 in test [9]; 602 in test [10]; 246 in test [11].
Consider GTEKKAATGGTPSPS, for which the antibody binding signal came to 999 in test [1]; 374 in test [2]; 2470 in test [3]; 1070 in test [4]; 1440 in test [5]; 216 in [6]. Besides, the antibody binding signal in [7] came to 746; in test [8] it was 929; in [9], 1030; in test [10] it was 97.6; in test [11] it was 166.
For TDKKTAAGGAPSPPG, the antibody binding signal amounted to 537 in test [1]; 263 in test [2]; 7180 in test [3]; 769 in [4]; 862 in test [5]; 238 in test [6]. The antibody binding signal in [7] came out at 102; in test [8], 166; in [9] it was 319; in test [10], 339; in [11] it was 154.
GTEKKPATGGTPSPS: the antibody binding signal in test [1] came out at 717; in test [2], 830; in [3], 2760; in [4], 1940; in [5], 1280; in [6], 290. For the same sequence, the antibody binding signal turned out to be 1270 in [7]; 2120 in test [8]; 255 in test [9]; 372 in test [10]; 1490 in test [11].
For GTDNKAATGGTPSQS, the antibody binding signal in [1] is 646; in test [2], 32200; in test [3], 775; in test [4], 647; in test [5], 179; in test [6] it was 274. The antibody binding signal turned out to be 735 in test [7]; 1780 in test [8]; 190 in test [9]; 358 in test [10]; 168 in test [11].
Take GKEKKPATGGAPSPP: the antibody binding signal in test [1] worked out at 1010; in test [2] it was 1590; in test [3], 4700; in test [4], 6620; in test [5], 4780; in test [6], 244. The antibody binding signal in test [7] came to 443; in [8], 95.3; in [9], 96.9; in test [10], 105; in test [11], 261.
For KDKKAATGGTPSPSG, the antibody binding signal in [1] is 249; in test [2], 168; in [3], 382; in test [4], 742; in [5] it was 448; in [6] it was 147. The antibody binding signal amounted to 82 in test [7]; 211 in test [8]; 337 in test [9]; 84.7 in test [10]; 119 in [11].
As to GKEKKAAAGETPSQP, the antibody binding signal in [1] worked out at 350; in test [2], 18100; in [3], 4080; in test [4] it was 5950; in [5], 5790; in test [6] it was 198. The antibody binding signal was 103 in test [7]; 99.5 in [8]; 135 in [9]; 74.7 in [10]; 126 in [11].
ISTPPSGTENKAATG: the antibody binding signal in test [1] was found to be 46300; in test [2], 52300; in test [3], 398; in [4], 4410; in [5] it was 26000; in test [6], 3460. Moreover, the antibody binding signal in test [7] turned out to be 721; in test [8], 462; in [9], 936; in [10] it was 395; in test [11], 749.
Turning to TEKKPAAGGAPSQSG, the antibody binding signal was 181 in [1]; 488 in test [2]; 4780 in [3]; 572 in [4]; 1290 in test [5]; 187 in test [6]. Also, the antibody binding signal in test [7] came to 187; in [8], 651; in test [9], 142; in test [10] it was 207; in [11], 1270.
For KKTAAGGAPSPSGAS, the antibody binding signal stood at 270 in test [1]; 333 in test [2]; 3820 in test [3]; 471 in [4]; 378 in [5]; 223 in test [6]. Also, the antibody binding signal in test [7] is 114; in test [8] it was 130; in test [9] it was 216; in test [10], 107; in test [11] it was 213.
With KDKKPATGGAPSQSG, the antibody binding signal in test [1] worked out at 263; in test [2] it was 321; in [3], 285; in [4], 360; in [5], 857; in test [6], 217. Besides, the antibody binding signal in [7] came out at 234; in [8], 134; in test [9], 97.5; in test [10] it was 94; in test [11], 98.9.
As for SGKENKAATGGAPSP, the antibody binding signal in test [1] is 569; in test [2] it was 18300; in test [3] it was 6970; in test [4] it was 4580; in test [5], 19900; in test [6] it was 6140. Besides, the antibody binding signal in test [7] came to 1640; in test [8], 86.1; in [9] it was 346; in [10] it was 201; in test [11], 200.
